{
  "source": "paper PMC10266789",
  "about": "(The Journal of Clinical Investigation, 2023)",
  "key": {"[1]": {"test_system": "Betacoronavirus 1 (strain OC43)", "assay": "microbe, parasite or virus in culture", "details": "Betacoronavirus 1, OC43, MRC5, read-out: IC50, HCoV-OC43"}, "[2]": {"test_system": "Respiratory syncytial virus (strain Long)", "assay": "microbe, parasite or virus in culture", "details": "human respiratory syncytial virus, MRC5, read-out: IC50, RSV"}, "HCMV (strain TB40/E) [3]": {"test_system": "HCMV (strain TB40/E)", "details": "Table 2; for SI CC50/IC50: HCMV/MRC-5"}, "[4]": {"test_system": "Respiratory syncytial virus (strain Long)", "details": "RSV/human MRC-5"}, "recombinant human SIRT2": {"molecular_target": "T1, recombinant human SIRT2 (Homo sapiens, UniProt Q8IXJ6)", "T1 construct": "purified, recombinant SIRT2^2–389, SIRT1^1–747, or SIRT3^1–400 protein (GenScript); purchased GenScript", "T1 sequence (Q8IXJ6 2-389)": "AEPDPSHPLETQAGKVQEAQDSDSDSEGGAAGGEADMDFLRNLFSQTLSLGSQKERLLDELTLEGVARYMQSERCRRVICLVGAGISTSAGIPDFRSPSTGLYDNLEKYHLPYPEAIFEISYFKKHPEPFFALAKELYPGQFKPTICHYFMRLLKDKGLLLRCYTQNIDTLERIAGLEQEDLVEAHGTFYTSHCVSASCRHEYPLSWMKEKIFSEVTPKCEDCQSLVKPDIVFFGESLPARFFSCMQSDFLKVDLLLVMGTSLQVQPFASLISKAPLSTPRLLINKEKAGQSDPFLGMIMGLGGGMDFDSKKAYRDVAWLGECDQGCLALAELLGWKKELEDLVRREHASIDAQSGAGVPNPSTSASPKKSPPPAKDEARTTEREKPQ", "assay": "SIRT deacylase assay, deacetylation of Ac-H3K9WW peptide, mass spectrometry", "format": "biochemical"}, "[5]": {"test_system": "Junin virus (strain Candid 1)", "assay": "microbe, parasite or virus in culture", "details": "Mammarenavirus juninense, read-out: IC50, Junin"}, "recombinant human SIRT3": {"molecular_target": "T2, recombinant human SIRT3 (Homo sapiens, UniProt Q9NTG7)", "T2 construct": "purified, recombinant SIRT2^2–389, SIRT1^1–747, or SIRT3^1–400 protein (GenScript); purchased GenScript", "T2 sequence (Q9NTG7 1-399)": "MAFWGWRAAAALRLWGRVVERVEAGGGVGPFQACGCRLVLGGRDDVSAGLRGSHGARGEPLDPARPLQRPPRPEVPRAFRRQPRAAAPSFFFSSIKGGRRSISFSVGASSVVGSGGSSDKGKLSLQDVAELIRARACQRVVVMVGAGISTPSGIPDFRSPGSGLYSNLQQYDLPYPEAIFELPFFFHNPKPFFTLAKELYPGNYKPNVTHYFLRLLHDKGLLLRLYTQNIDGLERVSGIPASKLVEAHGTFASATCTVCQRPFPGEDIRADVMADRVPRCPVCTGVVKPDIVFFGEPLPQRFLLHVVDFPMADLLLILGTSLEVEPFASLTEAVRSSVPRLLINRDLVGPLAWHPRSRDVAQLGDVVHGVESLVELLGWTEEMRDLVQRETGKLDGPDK", "assay": "SIRT deacylase assay, deacetylation of Ac-H3K9WW peptide, mass spectrometry", "format": "biochemical", "details": "Figure 1C; n = 3"}, "HCMV (strain TB40/E) [6]": {"test_system": "HCMV (strain TB40/E)", "assay": "microbe, parasite or virus in culture"}, "[7]": {"test_system": "c-Myc in MRC-5 human diploid fibroblasts", "assay": "Western blot of c-Myc in MRC-5 fibroblasts", "format": "cell-based", "details": "72 h"}, "[8]": {"assay": "Host cell cytotoxicity, dNHBE", "format": "cell-based", "details": "dNHBE cells; human dNHBE; Influenza A assay"}, "Mouse tolerability": {"assay": "Mouse tolerability", "format": "in vivo", "details": "50 mg/kg p.o. b.i.d. for 14 days; NOG mice"}, "MRC-5 cells [9]": {"test_system": "MRC-5 cells", "assay": "Host cell cytotoxicity, MRC-5"}, "[10]": {"assay": "Host cell cytotoxicity, MRC-5", "details": "human"}, "[11]": {"test_system": "Epstein-Barr virus (EBV; strain Akata)"}, "[12]": {"molecular_target": "T3, SIRT2 demyristoylase activity (Homo sapiens, UniProt Q8IXJ6)", "T3 construct": "purified, recombinant SIRT2^2–389, SIRT1^1–747, or SIRT3^1–400 protein (GenScript); purchased GenScript", "T3 sequence (Q8IXJ6 2-389)": "T1 sequence (Q8IXJ6 2-389)", "assay": "SIRT2 demyristoylase assay with Myr-H3K9WW peptide", "format": "biochemical", "details": "Supplemental Table 1"}, "[13]": {"test_system": "Junin virus (strain Candid 1)", "details": "Junin/human HFF"}, "[14]": {"test_system": "Zika virus (strain DAK41525)", "assay": "microbe, parasite or virus in culture", "details": "Fibroblast, read-out: IC50, Zika"}, "[15]": {"test_system": "HCMV TB40/E-mCherry-UL99eGFP", "assay": "HCMV treat-release experiment, TCID50 of culture medium", "details": "cell count, lactate dehydrogenase activity"}, "[16]": {"test_system": "HCMV TB40/E-mCherry-UL99eGFP", "assay": "HCMV treat-release-infect experiment, infected cell area", "format": "cell-based, human cytomegalovirus", "details": "Human betaherpesvirus 5, read-out: IC50, viral spread after pretreatment"}, "MRC-5 cells [17]": {"test_system": "MRC-5 cells"}, "SIRT2": {"test_system": "SIRT2", "details": "reported SIRT2 IC50s from literature; cited from earlier work"}},
  "note": "Like-named read-outs stand apart in the source and are kept apart here.",
  "data": [
    {"compound": "Cc1cn(-c2ccc3c(c2)CN(c2ncc(Cc4ccc(-n5cccn5)cc4)s2)CC3)c(C)n1", "note": "[FLS-359, 7-(2,4-dimethyl-1H-imidazol-1-yl)-2-(5-{[4-(1H-pyrazol-1-yl)phenyl]methyl}-1,3-thiazol-2-yl)-1,2,3,4-tetrahydroisoquinoline]", "values": [
      {"measurement": "IC50", "setting": "[1]", "value": 1.7, "unit": "µM"},
      {"measurement": "IC50", "setting": "[2]", "value": 6.7, "unit": "µM"},
      {"measurement": "SI CC50/IC50", "setting": "HCMV (strain TB40/E) [3]", "value": ">31.6"},
      {"measurement": "SI CC50/IC50", "setting": "[4]", "value": ">1.9"},
      {"measurement": "IC50", "setting": "recombinant human SIRT2; 50 μM NAD, Ac-H3K9WW 5 μM, read-out: SIRT2 IC50", "value": "~2.6", "unit": "µM"},
      {"measurement": "IC50", "setting": "recombinant human SIRT2; 50 μM NAD, Ac-H3K9WW 50 μM, read-out: SIRT2 IC50", "value": "~5.6", "unit": "µM"},
      {"measurement": "IC50", "setting": "recombinant human SIRT2; 100 μM NAD, Ac-H3K9WW 5 μM, read-out: SIRT2 IC50", "value": "~2.6", "unit": "µM"},
      {"measurement": "IC50", "setting": "recombinant human SIRT2; 100 μM NAD, Ac-H3K9WW 50 μM, read-out: SIRT2 IC50", "value": "~5.5", "unit": "µM"},
      {"measurement": "IC50", "setting": "recombinant human SIRT2; 200 μM NAD, Ac-H3K9WW 5 μM, read-out: SIRT2 IC50", "value": "~3.2", "unit": "µM"},
      {"measurement": "IC50", "setting": "recombinant human SIRT2; 200 μM NAD, Ac-H3K9WW 50 μM, read-out: SIRT2 IC50", "value": "~8.8", "unit": "µM"},
      {"measurement": "IC50", "setting": "recombinant human SIRT2; 500 μM NAD, Ac-H3K9WW 5 μM, read-out: SIRT2 IC50", "value": "~2.8", "unit": "µM"},
      {"measurement": "IC50", "setting": "recombinant human SIRT2; 500 μM NAD, Ac-H3K9WW 50 μM, read-out: SIRT2 IC50", "value": "~8.3", "unit": "µM"},
      {"measurement": "increase in SIRT2 IC50 when peptide raised from 5 μM to 50 μM", "setting": "recombinant human SIRT2; 1x Km to 10x Km peptide", "value": "about 2 fold"},
      {"measurement": "IC50", "setting": "recombinant human SIRT2; Figure 1C, n = 3, read-out: SIRT2 IC50, deacetylation of Ac-H3K9WW", "value": "~3", "unit": "µM"},
      {"measurement": "IC50", "setting": "recombinant human SIRT2; Supplemental Table 1, triplicate, read-out: Deacetylase pIC50 ± SE (converted)", "value": 3.16, "unit": "µM"},
      {"measurement": "Deacetylase NTV (Net Terminal Value, percent SIRT2 activity with saturating compound)", "setting": "recombinant human SIRT2; Supplemental Table 1, ± SE", "value": "6.5 ± 4.0", "unit": "%"},
      {"measurement": "IC50", "setting": "recombinant human SIRT2; Table 2, FLS-359 value from Figure 1, C and D, read-out: SIRT2 IC50", "value": 3, "unit": "µM"},
      {"measurement": "IC50", "setting": "recombinant human SIRT2; all NAD+ concentrations, peptide 5 μM, read-out: SIRT2 IC50", "value": "~3", "unit": "µM"},
      {"measurement": "IC50", "setting": "recombinant human SIRT2; all NAD+ concentrations, peptide 50 μM, read-out: SIRT2 IC50", "value": "~7", "unit": "µM"},
      {"measurement": "IC50", "setting": "[5]", "value": 3.2, "unit": "µM"},
      {"measurement": "IC50", "setting": "recombinant human SIRT3", "value": "> 100", "unit": "µM"},
      {"measurement": "IC50", "setting": "HCMV (strain TB40/E) [6]; Human betaherpesvirus 5, MRC5, in Homo sapiens, read-out: IC50, HCMV, human MRC-5, Table 1", "value": 0.5, "unit": "µM"},
      {"measurement": "IC90", "setting": "HCMV (strain TB40/E) [6]; Human betaherpesvirus 5, MRC5, read-out: FLS-359 IC90 for inhibition of HCMV", "value": 2.06, "unit": "µM"},
      {"measurement": "IC50", "setting": "HCMV (strain TB40/E) [6]; Human betaherpesvirus 5, MRC5, read-out: HCMV IC50, Table 2, infected MRC-5 cell area at 7 dpi, n = 2", "value": 0.5, "unit": "µM"},
      {"measurement": "EC90", "setting": "HCMV (strain TB40/E) [6]; Human betaherpesvirus 5, MRC5, read-out: approximate EC90 against HCMV", "value": "~5", "unit": "µM"},
      {"measurement": "c-Myc protein level", "setting": "[7]", "value": "not changed"},
      {"measurement": "CC50", "setting": "[8]", "value": "> 100", "unit": "µM"},
      {"measurement": "tolerability (weight, clinical signs)", "setting": "Mouse tolerability", "value": "No weight loss and no adverse clinical signs were observed"},
      {"measurement": "tolerability in dividing MRC-5 cells", "setting": "MRC-5 cells [9]; 6 days", "value": "tolerated"},
      {"measurement": "tolerability in confluent MRC-5 cells", "setting": "MRC-5 cells [9]; 7 days, counting of nuclei or neutral red uptake", "value": "well tolerated"},
      {"measurement": "CC50 at 7 days", "setting": "[10]; Host cell CC50, human MRC-5, HCMV assay", "value": "> 15.8", "unit": "µM"},
      {"measurement": "CC50", "setting": "[10]; Host cell CC50, human MRC-5, HCoV-OC43 assay", "value": "> 50", "unit": "µM"},
      {"measurement": "CC50", "setting": "[10]; Host cell CC50, human MRC-5, RSV assay", "value": "> 12.5", "unit": "µM"},
      {"measurement": "CC50 at 7 days", "setting": "[10]; MRC-5 CC50, uninfected MRC-5, DAPI cell count after 7-day treatment", "value": "> 15.8", "unit": "µM"},
      {"measurement": "accumulation of EBV BZLF1, BMRF1 and BLLF1 mRNAs", "setting": "[11]; 10 μM, qRT-PCR, Akata BL cells induced with anti-IgG", "value": "inhibited the accumulation"},
      {"measurement": "SI CC50/IC50", "setting": "[11]; Epstein-Barr/human Akata", "value": ">26.3"},
      {"measurement": "IC50", "setting": "[12]", "value": "> 100", "unit": "µM"},
      {"measurement": "SI CC50/IC50", "setting": "[13]", "value": ">7.8"},
      {"measurement": "IC50", "setting": "[14]", "value": 0.4, "unit": "µM"},
      {"measurement": "cellular toxicity at 96 hours after removal of the drug", "setting": "[15]", "value": "Minimal cellular toxicity"},
      {"measurement": "IC50", "setting": "[16]", "value": 4.8, "unit": "µM"}
    ]},
    {"compound": "O=[N+]([O-])c1ccc(Sc2nnc(COc3ccccc3)n2-c2ccccc2)c2ncccc12", "note": "[MIND4]", "values": [
      {"measurement": "SI CC50/IC50", "setting": "HCMV (strain TB40/E) [3]", "value": 1.4},
      {"measurement": "IC50", "setting": "HCMV (strain TB40/E) [3]; read-out: HCMV IC50, infected MRC-5 cell area at 7 dpi, n = 2", "value": 14.4, "unit": "µM"},
      {"measurement": "CC50", "setting": "MRC-5 cells [17]", "value": 19.8, "unit": "µM"},
      {"measurement": "IC50", "setting": "SIRT2", "value": 3.5, "unit": "µM"}
    ]}
  ]
}
